# Data published in PubChem BioAssay AID504333 (National Center for Advancing Translational Sciences (NCATS), 2011).
# Screen size: about 360,000 compounds; about 16,000 (4.4%) were called active. The inconclusive results got no clear call from the source; some entries with a clear call stand among them for comparison. Calls follow the shape of the dose curve; as a rule, active = well fitted inhibition curve with a large enough effect; inconclusive = small, poorly fitted or top-dose-only effect; inactive = no such curve, though single readings can be large or run the other way. Potencies of inconclusive entries are doubtful fits and often do not repeat.
# Biological target: Bromodomain adjacent to zinc finger domain protein 2B (Homo sapiens) (UniProt Q9UIF8)
# Sequence of UniProt Q9UIF8 (Q9UIF8 whole entry, looked up, the tested form may be a part): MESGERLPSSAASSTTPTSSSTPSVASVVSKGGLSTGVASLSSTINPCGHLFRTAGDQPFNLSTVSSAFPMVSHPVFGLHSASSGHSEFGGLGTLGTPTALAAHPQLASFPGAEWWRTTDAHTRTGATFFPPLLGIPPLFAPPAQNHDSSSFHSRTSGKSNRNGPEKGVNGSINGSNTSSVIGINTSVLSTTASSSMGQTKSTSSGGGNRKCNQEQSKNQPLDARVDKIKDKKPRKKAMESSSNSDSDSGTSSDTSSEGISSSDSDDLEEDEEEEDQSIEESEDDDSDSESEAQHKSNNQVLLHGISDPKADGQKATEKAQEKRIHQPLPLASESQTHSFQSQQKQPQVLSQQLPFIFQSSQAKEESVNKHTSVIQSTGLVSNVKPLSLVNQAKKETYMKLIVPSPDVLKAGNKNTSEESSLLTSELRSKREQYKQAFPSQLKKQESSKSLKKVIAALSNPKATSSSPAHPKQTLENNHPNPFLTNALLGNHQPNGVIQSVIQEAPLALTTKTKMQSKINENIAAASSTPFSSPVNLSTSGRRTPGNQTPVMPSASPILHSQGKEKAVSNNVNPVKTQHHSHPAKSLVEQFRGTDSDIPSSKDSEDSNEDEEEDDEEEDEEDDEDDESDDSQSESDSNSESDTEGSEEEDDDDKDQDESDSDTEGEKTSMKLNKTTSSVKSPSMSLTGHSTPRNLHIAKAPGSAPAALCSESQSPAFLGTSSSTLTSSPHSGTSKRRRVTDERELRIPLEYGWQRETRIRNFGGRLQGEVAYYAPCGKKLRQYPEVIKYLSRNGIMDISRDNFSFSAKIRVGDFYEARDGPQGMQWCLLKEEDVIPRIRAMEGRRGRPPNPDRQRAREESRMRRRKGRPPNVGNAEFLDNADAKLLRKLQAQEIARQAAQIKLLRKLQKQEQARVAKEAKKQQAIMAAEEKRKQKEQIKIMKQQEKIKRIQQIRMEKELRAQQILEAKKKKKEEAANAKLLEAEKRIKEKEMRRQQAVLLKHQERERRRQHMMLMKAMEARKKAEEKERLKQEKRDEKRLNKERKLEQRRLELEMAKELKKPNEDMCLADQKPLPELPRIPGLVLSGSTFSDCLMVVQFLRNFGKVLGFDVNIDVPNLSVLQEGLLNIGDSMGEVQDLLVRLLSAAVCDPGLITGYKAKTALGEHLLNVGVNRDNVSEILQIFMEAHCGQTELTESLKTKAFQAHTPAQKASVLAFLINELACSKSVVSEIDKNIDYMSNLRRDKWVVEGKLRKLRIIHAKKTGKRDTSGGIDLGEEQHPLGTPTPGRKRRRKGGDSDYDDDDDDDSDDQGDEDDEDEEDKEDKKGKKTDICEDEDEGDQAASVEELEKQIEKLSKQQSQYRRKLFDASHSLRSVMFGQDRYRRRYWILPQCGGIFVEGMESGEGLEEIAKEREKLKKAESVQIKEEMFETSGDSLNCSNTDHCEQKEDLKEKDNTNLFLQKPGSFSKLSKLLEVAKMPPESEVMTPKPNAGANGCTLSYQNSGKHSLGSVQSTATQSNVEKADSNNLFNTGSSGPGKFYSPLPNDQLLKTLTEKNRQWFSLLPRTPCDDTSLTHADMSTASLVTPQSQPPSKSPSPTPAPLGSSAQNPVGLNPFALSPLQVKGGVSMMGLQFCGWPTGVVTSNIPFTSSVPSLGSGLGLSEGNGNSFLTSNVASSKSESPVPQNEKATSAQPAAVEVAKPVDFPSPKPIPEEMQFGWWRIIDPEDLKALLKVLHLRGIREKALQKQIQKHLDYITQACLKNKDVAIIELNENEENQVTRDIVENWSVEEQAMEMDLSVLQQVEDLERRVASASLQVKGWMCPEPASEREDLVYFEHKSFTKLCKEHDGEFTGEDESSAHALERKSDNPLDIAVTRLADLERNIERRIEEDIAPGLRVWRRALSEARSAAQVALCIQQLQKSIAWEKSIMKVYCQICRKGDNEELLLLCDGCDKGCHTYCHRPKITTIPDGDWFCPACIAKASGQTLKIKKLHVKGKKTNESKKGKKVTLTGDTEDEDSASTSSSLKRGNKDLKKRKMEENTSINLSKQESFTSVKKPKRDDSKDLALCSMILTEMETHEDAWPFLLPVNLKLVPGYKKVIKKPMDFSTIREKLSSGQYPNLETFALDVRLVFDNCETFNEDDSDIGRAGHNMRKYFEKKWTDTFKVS
# Test: qHTS Assay for Inhibitors of BAZ2B; also: nearly all actives have a fitted effect of over 60% in size
# Settings: AlphaScreen BAZ2B-H3K14Ac peptide displacement; series mostly up to 114 µM
# Outline: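 AlphaScreen displacement of biotin-H3(5-23)K14Ac peptide (50 nM final) from BAZ2B (50 nM final) in PBS pH 7.4, 0.01% Tween-20; complex preformed 30 min RT, then compounds (top 110 uM) 30 min RT, beads 20 min dark.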
# Potency is read from the fitted curve at half-maximal effect; tags tell the direction and shape of the fitted curve.
row,Compound,Potency
1,O=C(c1ccccc1Br)N(Cc1ccco1)Cc1ccco1,"inconclusive: 79.4 µM [inhibitor, single point]"
2,COC(=O)c1cccc(S(=O)(=O)N(Cc2ccco2)Cc2cc3cc(OC)ccc3[nH]c2=O)c1,"inconclusive: 7.08 µM [inhibitor, single point]"
3,CCOc1ccccc1-n1c(SCC(=O)Nc2ccccc2C(=O)O)nc2ccccc2c1=O,inactive
4,CCn1ccnc1CN1CCC(n2nccc2NC(=O)c2ccccc2OC)CC1,inactive
5,COc1ccc(-c2oc3cccnc3c2-c2ccc(OC)nc2)cc1,inactive
6,O=C(N=Nc1c(O)[nH]c2ccc(Br)cc12)c1ccccc1-n1cccc1,active: 31.6 µM
7,O=C(CCNC(=O)c1ccc([N+](=O)[O-])cc1)NC1CCCc2ccccc21 (centres undefined),inactive
8,CCOC(=O)CSc1ccc(C(=O)Nc2ccc(Cl)cc2)cn1,inactive
9,O=C(CN1CCOCC1)N/N=C/c1c(O)ccc2ccccc12,active: 44.7 µM
10,COc1ccc(C(O)P(=O)(O)CCc2ccccc2)cc1 (centres undefined),"inconclusive: 89.1 µM [inhibitor, single point]"
11,CC(=O)OC1COC(N2CCc3ccccc32)C(OC(C)=O)C1OC(C)=O (centres undefined),"inconclusive: 89.1 µM [inhibitor, single point]"
12,O=C(Nc1cccc(C(F)(F)F)c1)c1cnn(-c2cccc(F)c2)c1C1CCNCC1,inactive
13,CCOC(=O)c1c(C)oc2nc(C)nc(NCC3CCN(Cc4ccc(C)cc4)CC3)c12,inactive
14,O=C(NCCCN1CCCCCC1)C1CC(=O)N(CCc2ccccc2)C1 (centres undefined),"inconclusive: 89.1 µM [inhibitor, single point]"
15,O=C(COc1ccc(F)cc1)Nc1nc(-c2ccccn2)cs1,"inconclusive: 89.1 µM [inhibitor, single point]"
16,O=C(CCC(=O)c1ccc(Oc2ccccc2)cc1)Nc1ccc(C(=O)O)cc1,inactive
17,CC1=C(C(=O)NCc2cccc(F)c2)C2(CCCCC2)OC1=O,inactive
18,S=c1nc[nH]c2c1ncn2C1CCCO1 (centres undefined),"inconclusive: 79.4 µM [inhibitor, partial curve]"
19,N#C/C(=C\c1ccc(OCc2ccc(Cl)cc2)cc1)C(=O)Nc1cccc(C(=O)O)c1,active: 56.2 µM
20,O=C(NCc1c(Cl)cccc1Oc1ccccc1)c1ccccc1,inactive
21,CCOc1ccc(NC(=O)CN(C)C(=O)CCCc2c[nH]c3ccccc23)cc1OCC,"inconclusive: 70.8 µM [inhibitor, single point]"
22,CSc1nc(-c2ccccc2)cn1-c1ccc(NC(C)=O)cc1,"inconclusive: 56.2 µM [inhibitor, partial curve]"
23,Cc1ccc(C2C(C(=O)c3cccs3)=C(O)C(=O)N2c2nnc(C)s2)cc1 (centres undefined),"inconclusive: 70.8 µM [inhibitor, partial curve]"
24,CN(C)S(=O)(=O)c1cc(NC2CC(=O)N(c3ccc(F)cc3)C2=O)ccc1Cl (centres undefined),inactive
25,CCOC(=O)C1=C(C)N(c2ccccc2)C(=O)/C1=C\c1cccs1,active: 10 µM

row,Compound,Potency
1,O=C(Nc1ccc(C(=O)O)c(O)c1)c1ccccc1,inactive
2,Cc1ccc2nc(N(CCN(C)C)C(=O)c3ccc4c(c3)OCCO4)sc2c1,"inconclusive: 35.5 µM [inhibitor, partial curve]"
3,COc1ccc(C(=O)Nc2ccc(N(C)Cc3ccccc3)c(C(=O)O)c2)cc1,"inconclusive: 89.1 µM [inhibitor, single point]"
4,CCCOc1ccc(C(=O)CCC(=O)OCC(=O)Nc2cc(C)on2)cc1,inactive
5,O=C(CC(Cc1ccccc1)c1ccco1)NCc1ccco1 (centres undefined),"inconclusive: 70.8 µM [inhibitor, single point]"
6,CCCCn1cnc2cc(NCc3ccccc3Cl)ccc21,active: 35.5 µM
7,CC(C)C[C@@H]1NC(=O)[C@H](C(C)C)NC(=O)c2cc([N+](=O)[O-])cc(I)c2NCC[C@@H](C(N)=O)NC1=O,active: 79.4 µM
8,CC(=O)C1=C(O)C(=O)N(Cc2ccco2)C1c1ccccc1 (centres undefined),"inconclusive: 89.1 µM [inhibitor, single point]"
9,c1ccc(CNc2nc(-c3ccccn3)nc3ccccc23)cc1,"inconclusive: 39.8 µM [inhibitor, partial curve, poor fit]"
10,Cc1cccc(C)c1-n1c(C)cc(/C=N\NC(=O)CC(=O)NC2CCCCC2)c1C,active: 50.1 µM
11,COc1cc(CNCc2ccco2)cc(OC)c1O,inactive
12,COc1cc(/C=N/NC(=O)c2cccnc2)ccc1OCC(=O)Nc1ccccc1Cl,inactive
13,COc1ccc(NC(=O)CNC(=O)N2CC(=O)Nc3ccccc32)cc1OC,inactive
14,Cc1ccc2nc3c(cc(C(=O)NCc4cccnc4)c(=N)n3C(C)C)c(=O)n2c1,inactive
15,CCN=c1scc(C)n1/N=C/c1ccc(O)c(O)c1O,active: 22.4 µM
16,CSc1nnc(C)c(/C=C/Nc2ccc(F)cc2)n1,"inconclusive: 89.1 µM [inhibitor, single point]"
17,Cc1ccc2c(CNCc3ccc(C)o3)c(C(=O)O)n(Cc3ccccc3C)c2c1,"inconclusive: 89.1 µM [inhibitor, single point]"
18,Cn1c(C(=O)Nc2ccccc2)cc2sccc21,"inconclusive: 89.1 µM [inhibitor, single point]"
19,O=C(O)CSC1=NC(=Nc2ccc(Cl)cc2)C2(CCCCC2)N1c1cccc(C(=O)O)c1,"inconclusive: 89.1 µM [inhibitor, single point]"
20,COc1ccc(C(=O)c2cnc3ccccc3c2-c2ccccc2)cc1,"inconclusive: 89.1 µM [inhibitor, single point]"
21,O=C(O)CCCCCNC(=O)C(=O)C1C(=O)Nc2ccccc21 (centres undefined),"inconclusive: 89.1 µM [inhibitor, single point]"
22,COc1ccc(C2=NNC(c3cccnc3)=Nc3ccc(OC)cc32)cc1,"inconclusive: 79.4 µM [inhibitor, single point]"
23,CC(C)c1ccccc1NC(=O)C1C2C=CC(C2)C1C(=O)O (centres undefined),inactive
24,COc1ccc(-n2c(=S)[nH]c(=O)c3cccnc32)cc1,"inconclusive: 89.1 µM [inhibitor, single point]"
